± gives the standard deviation of the averaged measurements. The list shows a part of the results.
The sequences below were run on PfAP2-I AP2 domain 3 (GST-tagged) (assay: gcPBM binding intensity (ln(normalized median fluorescence intensity)); higher = stronger DNA binding).
Method in brief: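 Binding intensity is defined as the maximum Masliner-normalised natural-log median intensity across replicate spots for either probe orientation. It was measured on an Agilent 4 × 180k array of primer-extended double-stranded 36-bp intergenic genomic probes and negative controls, to which GST-tagged P. falciparum DNA-binding domains made in E. coli were applied for 1 h in 1× PBS with 1% milk, 0.2 mg/ml BSA, 0.5% salmon testes DNA and 0.03% Triton X-100. Detection was by Alexa488 anti-GST antibody and scanning at 488 nm.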

Row | Sequence | gcPBM binding intensity (ln)
1 | TTAGTTATTATAATTTGTACACAAATGGTAAAGTAT [XGTACX_site2343] | 8.26 ± 0.45
2 | TTTGTACCGGCATTTTTTTTTTCTTTTTTTTTCCAA [XGTACX_negctrl_site323] | 7.64 ± 0.4
3 | TATTAAAAATGTTAAGTGCAAAAATAAAAATTGTGG [GTGCAC_site9854] | 9.46 ± 0.53
4 | TATAAATTATATATTTGTACGTATATCACATATATA [XGTACX_site7053] | 7.63 ± 0.33
5 | TACATGAATATATAAAGAAAAAAAAAAAAACACACA [XGTACX_negctrl_site350] | 7.96 ± 0.32
6 | TTCTCATAATTAAATAGTACATATTTTAATAATCAC [XGTACX_site6116] | 7.89 ± 0.16
7 | TTTATTGAATAAAATGCACACGCATGCGTTATTTAT [CACACA_site9154] | 8.98 ± 0.31
8 | TATATGTTATATTTAACACACATATAAGGTACATAT [CACACA_site612] | 8.04 ± 0.43
9 | TGTTAAAGAGAAAGTACTACACATATTATGTGTTTT [XGTACX_site1435] | 7.7 ± 0.44
10 | TTTTATAAACAGAGGGGTACGGGAAAAAAAAAAAAA [XGTACX_site1480] | 8.31 ± 0.73
11 | TTTTTAAACCATGTTGTGCACATTTTTTTTGGATTT | 10.2 ± 0.14
12 | TTAAAAAAAATTATTTGTACTTAAAAATTTTATATT [XGTACX_site8751] | 7.56 ± 0.17
13 | AGAAAAAAAAAACACACACACACACCGTCAATATAA [CACACA_site7895] | 7.79 ± 0.42
14 | TATGTATGTTAGTGTGCACACATAAATATTATATAT [CACACA_site9121] | 9.56 ± 0.057
15 | TTTTTAAAATTTTTAAAAATATTATGTTAAATATAT [CACACA_negctrl_site415] | 7.61 ± 0.39
16 | ACATATGAAAAATATGCATGCAAATATTATTTAACA [TGCATGCA_site802] | 7.74 ± 0.84
17 | AAAAAAAAAAAAATCTCACACATAAAGAGATTATGA [CACACA_site4408] | 7.55 ± 0.45
18 | TTGAAAGAAAATAAAATAAAATAAAATAAAATAAAA [CACACA_negctrl_site859] | 7.69 ± 0.89
19 | ATATATATGTATTTATGTACATATTATTTTTCTTAA [XGTACX_site8169] | 7.82 ± 0.64

Row | Sequence | gcPBM binding intensity (ln)
20 | AATAAATAAAAATATATATATATAATATACATGTGT [TGCATGCA_negctrl_site369] | 7.62 ± 0.5
21 | GGATGTATTTATATGTGTATGTGTTTGGAAATATGT [XGTACX_negctrl_site99] | 8.04 ± 0.47
22 | TTTTATTTCAATCCACAAGGGATAAAATAAAGTTTT [CACACA_negctrl_site699] | 7.36 ± 0.53
23 | ATATGGAATAATACGCGTACACACATATATATATTA [XGTACX_site307] | 8.11 ± 0.28
24 | TCTTGATTATATAGTACTACACATTATAAAAAAATT [XGTACX_site2465] | 8.06 ± 0.34
25 | TTTATATCATTACAAGTGCATATCATCATAAATTCT [GTGCAC_site9878] | 8.81 ± 0.3
26 | TATATATAAATATATGTGCACTTTTTATATTTATAT | 11 ± 0.13
27 | AAAAAATAGAATATAAAAATAAAGGAATTAAATTAA [XGTACX_negctrl_site420] | 7.33 ± 0.75
28 | AATTTTTTTTTAATCATGCACACTGTTAAAAGAATA [CACACA_site1240] | 8.49 ± 0.35
29 | TTCATATATTTAGGACGTACTTTTATATTACTATAT [XGTACX_site6456] | 7.64 ± 0.46
30 | TTTTAAAAATTAAGTGCATGTCCTTATAAAAAAAAA [TGCATGCA_site845] | 8.49 ± 0.51
31 | ATATATTGGAGCACAACACACACAAGTATATATATG [CACACA_site8435] | 8.41 ± 0.34
32 | AAAAAAAAAAAAAACACACAGAACAATATATAAATA [CACACA_site982] | 7.94 ± 0.62
33 | AAAAAAAAATACAAAATAGCAATAAATACACAAACG [GTGCAC_negctrl_site707] | 7.98 ± 0.64
34 | AAAAAAAAAAAAAAAACATGCACAAATTATAAGTGA [TGCATGCA_site378] | 9.2 ± 0.46
35 | ACTACATAATACTATTCACACATTTTTTTTTTTTTT [CACACA_site5794] | 7.83 ± 0.58
36 | AATTATATAACAAATTGTACGAATGAAAATATTATT [XGTACX_site4237] | 7.78 ± 0.57
37 | TAAAAATAGGAATACGCACACGATGATTAATTTATA [CACACA_site1835] | 7.84 ± 0.5
38 | ATTTTTTTTTTTTTTTTGGGGGGGTATACTTTTAAA [CACACA_negctrl_site1020] | 11.6 ± 0.4

Row | Sequence | gcPBM binding intensity (ln)
39 | TTCCTTTTTTTTTATTGTACAAAAATATCAAAAAGG [XGTACX_site8505] | 7.78 ± 0.2
40 | TTTTTAATTTTATATACACACATAAAATATATGAAG [CACACA_site3145] | 7.78 ± 0.49
41 | TATAATGAGGATGATAGTACGTATTAGTATAAAAAA [XGTACX_site6623] | 8.01 ± 0.64
42 | TTTATATATATTTATACACACAAACATAATACTACT [CACACA_site5161] | 7.77 ± 0.51
43 | ATAATACCCAAGCACACACACACACCGATATATATA [CACACA_site8344] | 8.43 ± 0.54
44 | AATTTATAAGAATAAAGTACTAAAGATACAACTTTA [XGTACX_site7153] | 7.53 ± 0.4
45 | TGTTATTATAACATTTTTTTCAAAATAGCTTTAGAA [CACACA_negctrl_site266] | 7.46 ± 0.56
46 | ATTAAAGGAAGCAAAACATGCAACAGCAATATTGCA [TGCATGCA_site452] | 7.79 ± 0.73
47 | ATATTTTTTGCTATTACACACAAGGGATTATTATTT [CACACA_site7776] | 8.15 ± 0.59
48 | AAGAAAAAAAATATATATGTATATATTATTTTAACA [TGCATGCA_negctrl_site534] | 7.34 ± 0.3
49 | ATGTTAATAACTTGTGGTACTGTTATAATTTAGTAA [XGTACX_site2114] | 7.71 ± 0.42
50 | TAATAATAGTCTAATACATGCATCGATAACGGAACT [TGCATGCA_site98] | 7.67 ± 0.67
51 | TATATACACATATATACACACACATATATATATATA [CACACA_site9127] | 9.24 ± 0.55
52 | ATATATCTACTGTGTTGTACTGTTAATATTTGAATA [XGTACX_site1931] | 7.81 ± 0.55
53 | ATATAAGTGTATCTAACACACAAATATGTAAAAATG [CACACA_site7006] | 7.61 ± 0.59
54 | CAGGCGTGAAATATACGTACACACATTATTTATATT [XGTACX_site5337] | 8.01 ± 0.26
55 | ATATAAATTATTTACACACAAACATTTATACTTTTA [CACACA_site3448] | 7.96 ± 0.41
56 | TTTTGTTACGGCAAGGAAGTTAAGCATAAATGAATG [GTGCAC_negctrl_site173] | 7.99 ± 0.62
